Data: PMC4460075, “ULK2 Ser 1027 Phosphorylation by PKA Regulates Its Nuclear Localization Occurring through Karyopherin Beta 2 Recognition of a PY-NLS Motif” (PLoS ONE, 2015)
Results are given in words; binding and its absence hold for the method and conditions named. In cells and extracts the contact can be indirect. Some results given as binding are weak or reduced against the parent protein; the word gives no strength. For some of these results: Sequences can lack the tags named with a protein.

Amino acid sequences for entries named in this document (tags omitted).
UniProt Q92973: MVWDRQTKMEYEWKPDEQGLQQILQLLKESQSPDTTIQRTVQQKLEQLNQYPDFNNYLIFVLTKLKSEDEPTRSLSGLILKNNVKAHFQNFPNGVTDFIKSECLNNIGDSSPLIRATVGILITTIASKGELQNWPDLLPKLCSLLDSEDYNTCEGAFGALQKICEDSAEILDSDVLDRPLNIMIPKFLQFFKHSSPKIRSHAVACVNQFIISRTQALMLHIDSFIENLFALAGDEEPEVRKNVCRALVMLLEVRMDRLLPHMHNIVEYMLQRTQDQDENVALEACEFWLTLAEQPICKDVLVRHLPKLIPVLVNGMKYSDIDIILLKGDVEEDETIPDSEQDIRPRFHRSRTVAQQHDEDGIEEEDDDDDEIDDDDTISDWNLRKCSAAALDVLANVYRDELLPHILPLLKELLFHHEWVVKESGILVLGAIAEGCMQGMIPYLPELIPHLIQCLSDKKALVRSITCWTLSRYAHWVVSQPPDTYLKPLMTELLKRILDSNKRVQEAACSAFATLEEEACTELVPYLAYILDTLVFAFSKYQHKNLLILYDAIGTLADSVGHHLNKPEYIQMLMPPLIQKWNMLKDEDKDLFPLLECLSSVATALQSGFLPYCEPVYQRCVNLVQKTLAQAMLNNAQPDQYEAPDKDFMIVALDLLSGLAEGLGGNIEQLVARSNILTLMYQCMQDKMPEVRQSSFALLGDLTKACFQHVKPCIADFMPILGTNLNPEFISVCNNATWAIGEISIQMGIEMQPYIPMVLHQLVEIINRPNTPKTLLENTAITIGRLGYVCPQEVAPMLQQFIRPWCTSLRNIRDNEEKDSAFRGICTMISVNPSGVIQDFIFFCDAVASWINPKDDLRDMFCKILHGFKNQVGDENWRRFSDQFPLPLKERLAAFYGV

Assays:
[1] = biological target: karyopherin beta 2 (Kapβ2), endogenous (human (endogenous in HEK293)) (UniProt Q92973); experiment: co-IP; endogenous proteins of HEK293 lysate; IP with anti-ULK2 and blot for Kapβ2, and IP with anti-Kapβ2 and blot for ULK2; Protein A-Sepharose; control IP with an unrelated anti-EGFP antibody
[2] = biological target: GST-Kapβ2 (pGEX-5X-1 Kapβ2 fusion protein) (UniProt Q92973); experiment: pull-down; GST-Kapβ2 beads (purified from E. coli) with lysate of HEK293 cells transfected with EGFP-ULK2 WT, P242A or P794A; 2 hours at 4°C; blot for ULK2/EGFP; only the target purified

Row | Binder | binding [1] | binding [2]
1 | EGFP-ULK2 WT (natural protein, human, UniProt Q8IYT8 1-1036, looked up) MEVVGDFEYSKRDLVGHGAFAVVFRGRHRQKTDWEVAIKSINKKNLSKSQILLGKEIKILKELQHENIVALYDVQELPNSVFLVMEYCNGGDLADYLQAKGTLSEDTIRVFLHQIAAAMRILHSKGIIHRDLKPQNILLSYANRRKSSVSGIRIKIADFGFARYLHSNMMAATLCGSPMYMAPEVIMSQHYDAKADLWSIGTVIYQCLVGKPPFQANSPQDLRMFYEKNRSLMPSIPRETSPYLANLLLGLLQRNQKDRMDFEAFFSHPFLEQGPVKKSCPVPVPMYSGSVSGSSCGSSPSCRFASPPSLPDMQHIQEENLSSPPLGPPNYLQVSKDSASTSSKNSSCDTDDFVLVPHNISSDHSCDMPVGTAGRRASNEFLVCGGQCQPTVSPHSETAPIPVPTQIRNYQRIEQNLTSTASSGTNVHGSPRSAVVRRSNTSPMGFLRPGSCSPVPADTAQTVGRRLSTGSSRPYSPSPLVGTIPEQFSQCCCGHPQGHDSRSRNSSGSPVPQAQSPQSLLSGARLQSAPTLTDIYQNKQKLRKQHSDPVCPSHTGAGYSYSPQPSRPGSLGTSPTKHLGSSPRSSDWFFKTPLPTIIGSPTKTTAPFKIPKTQASSNLLALVTRHGPAEEQSKDGNEPRECAHCLLVQGSERQRAEQQSKAVFGRSVSTGKLSDQQGKTPICRHQGSTDSLNTERPMDIAPAGACGGVLAPPAGTAASSKAVLFTVGSPPHSAAAPTCTHMFLRTRTTSVGPSNSGGSLCAMSGRVCVGSPPGPGFGSSPPGAEAAPSLRYVPYGASPPSLEGLITFEAPELPEETLMEREHTDTLRHLNVMLMFTECVLDLTAMRGGNPELCTSAVSLYQIQESVVVDQISQLSKDWGRVEQLVLYMKAAQLLAASLHLAKAQIKSGKLSPSTAVKQVVKNLNERYKFCITMCKKLTEKLNRFFSDKQRFIDEINSVTAEKLIYNCAVEMVQSAALDEMFQQTEDIVYRYHKAALLLEGLSRILQDPADIENVHKYKCSIERRLSALCHSTATV |  | binds
2 | EGFP-ULK2 PY-NLS mutant (P794A) (natural protein, human, UniProt Q8IYT8 1-1036, looked up) MEVVGDFEYSKRDLVGHGAFAVVFRGRHRQKTDWEVAIKSINKKNLSKSQILLGKEIKILKELQHENIVALYDVQELPNSVFLVMEYCNGGDLADYLQAKGTLSEDTIRVFLHQIAAAMRILHSKGIIHRDLKPQNILLSYANRRKSSVSGIRIKIADFGFARYLHSNMMAATLCGSPMYMAPEVIMSQHYDAKADLWSIGTVIYQCLVGKPPFQANSPQDLRMFYEKNRSLMPSIPRETSPYLANLLLGLLQRNQKDRMDFEAFFSHPFLEQGPVKKSCPVPVPMYSGSVSGSSCGSSPSCRFASPPSLPDMQHIQEENLSSPPLGPPNYLQVSKDSASTSSKNSSCDTDDFVLVPHNISSDHSCDMPVGTAGRRASNEFLVCGGQCQPTVSPHSETAPIPVPTQIRNYQRIEQNLTSTASSGTNVHGSPRSAVVRRSNTSPMGFLRPGSCSPVPADTAQTVGRRLSTGSSRPYSPSPLVGTIPEQFSQCCCGHPQGHDSRSRNSSGSPVPQAQSPQSLLSGARLQSAPTLTDIYQNKQKLRKQHSDPVCPSHTGAGYSYSPQPSRPGSLGTSPTKHLGSSPRSSDWFFKTPLPTIIGSPTKTTAPFKIPKTQASSNLLALVTRHGPAEEQSKDGNEPRECAHCLLVQGSERQRAEQQSKAVFGRSVSTGKLSDQQGKTPICRHQGSTDSLNTERPMDIAPAGACGGVLAPPAGTAASSKAVLFTVGSPPHSAAAPTCTHMFLRTRTTSVGPSNSGGSLCAMSGRVCVGSPPGPGFGSSPPGAEAAPSLRYVAYGASPPSLEGLITFEAPELPEETLMEREHTDTLRHLNVMLMFTECVLDLTAMRGGNPELCTSAVSLYQIQESVVVDQISQLSKDWGRVEQLVLYMKAAQLLAASLHLAKAQIKSGKLSPSTAVKQVVKNLNERYKFCITMCKKLTEKLNRFFSDKQRFIDEINSVTAEKLIYNCAVEMVQSAALDEMFQQTEDIVYRYHKAALLLEGLSRILQDPADIENVHKYKCSIERRLSALCHSTATV |  | no binding

The next lines start with the values.

Row | binding [1] | binding [2] | Binder
3 | binds |  | Uncoordinated 51-like kinase 2 (ULK2), endogenous (natural protein, human (endogenous in HEK293), UniProt Q8IYT8 1-1036, looked up) MEVVGDFEYSKRDLVGHGAFAVVFRGRHRQKTDWEVAIKSINKKNLSKSQILLGKEIKILKELQHENIVALYDVQELPNSVFLVMEYCNGGDLADYLQAKGTLSEDTIRVFLHQIAAAMRILHSKGIIHRDLKPQNILLSYANRRKSSVSGIRIKIADFGFARYLHSNMMAATLCGSPMYMAPEVIMSQHYDAKADLWSIGTVIYQCLVGKPPFQANSPQDLRMFYEKNRSLMPSIPRETSPYLANLLLGLLQRNQKDRMDFEAFFSHPFLEQGPVKKSCPVPVPMYSGSVSGSSCGSSPSCRFASPPSLPDMQHIQEENLSSPPLGPPNYLQVSKDSASTSSKNSSCDTDDFVLVPHNISSDHSCDMPVGTAGRRASNEFLVCGGQCQPTVSPHSETAPIPVPTQIRNYQRIEQNLTSTASSGTNVHGSPRSAVVRRSNTSPMGFLRPGSCSPVPADTAQTVGRRLSTGSSRPYSPSPLVGTIPEQFSQCCCGHPQGHDSRSRNSSGSPVPQAQSPQSLLSGARLQSAPTLTDIYQNKQKLRKQHSDPVCPSHTGAGYSYSPQPSRPGSLGTSPTKHLGSSPRSSDWFFKTPLPTIIGSPTKTTAPFKIPKTQASSNLLALVTRHGPAEEQSKDGNEPRECAHCLLVQGSERQRAEQQSKAVFGRSVSTGKLSDQQGKTPICRHQGSTDSLNTERPMDIAPAGACGGVLAPPAGTAASSKAVLFTVGSPPHSAAAPTCTHMFLRTRTTSVGPSNSGGSLCAMSGRVCVGSPPGPGFGSSPPGAEAAPSLRYVPYGASPPSLEGLITFEAPELPEETLMEREHTDTLRHLNVMLMFTECVLDLTAMRGGNPELCTSAVSLYQIQESVVVDQISQLSKDWGRVEQLVLYMKAAQLLAASLHLAKAQIKSGKLSPSTAVKQVVKNLNERYKFCITMCKKLTEKLNRFFSDKQRFIDEINSVTAEKLIYNCAVEMVQSAALDEMFQQTEDIVYRYHKAALLLEGLSRILQDPADIENVHKYKCSIERRLSALCHSTATV
4 |  | binds | EGFP-ULK2 P242A mutant (natural protein, human, UniProt Q8IYT8 1-1036, looked up) MEVVGDFEYSKRDLVGHGAFAVVFRGRHRQKTDWEVAIKSINKKNLSKSQILLGKEIKILKELQHENIVALYDVQELPNSVFLVMEYCNGGDLADYLQAKGTLSEDTIRVFLHQIAAAMRILHSKGIIHRDLKPQNILLSYANRRKSSVSGIRIKIADFGFARYLHSNMMAATLCGSPMYMAPEVIMSQHYDAKADLWSIGTVIYQCLVGKPPFQANSPQDLRMFYEKNRSLMPSIPRETSAYLANLLLGLLQRNQKDRMDFEAFFSHPFLEQGPVKKSCPVPVPMYSGSVSGSSCGSSPSCRFASPPSLPDMQHIQEENLSSPPLGPPNYLQVSKDSASTSSKNSSCDTDDFVLVPHNISSDHSCDMPVGTAGRRASNEFLVCGGQCQPTVSPHSETAPIPVPTQIRNYQRIEQNLTSTASSGTNVHGSPRSAVVRRSNTSPMGFLRPGSCSPVPADTAQTVGRRLSTGSSRPYSPSPLVGTIPEQFSQCCCGHPQGHDSRSRNSSGSPVPQAQSPQSLLSGARLQSAPTLTDIYQNKQKLRKQHSDPVCPSHTGAGYSYSPQPSRPGSLGTSPTKHLGSSPRSSDWFFKTPLPTIIGSPTKTTAPFKIPKTQASSNLLALVTRHGPAEEQSKDGNEPRECAHCLLVQGSERQRAEQQSKAVFGRSVSTGKLSDQQGKTPICRHQGSTDSLNTERPMDIAPAGACGGVLAPPAGTAASSKAVLFTVGSPPHSAAAPTCTHMFLRTRTTSVGPSNSGGSLCAMSGRVCVGSPPGPGFGSSPPGAEAAPSLRYVPYGASPPSLEGLITFEAPELPEETLMEREHTDTLRHLNVMLMFTECVLDLTAMRGGNPELCTSAVSLYQIQESVVVDQISQLSKDWGRVEQLVLYMKAAQLLAASLHLAKAQIKSGKLSPSTAVKQVVKNLNERYKFCITMCKKLTEKLNRFFSDKQRFIDEINSVTAEKLIYNCAVEMVQSAALDEMFQQTEDIVYRYHKAALLLEGLSRILQDPADIENVHKYKCSIERRLSALCHSTATV
